Data on 40 sequences can be found in the supplement of paper PMC6531468.

The other results are listed elsewhere or left out. Read counts after selection give these values, which scatter widely. Scores sum up all selected molecules that hold the word; the word was not tested alone.

Sequence of IMP3 KH1-4 (chain, as listed by the source): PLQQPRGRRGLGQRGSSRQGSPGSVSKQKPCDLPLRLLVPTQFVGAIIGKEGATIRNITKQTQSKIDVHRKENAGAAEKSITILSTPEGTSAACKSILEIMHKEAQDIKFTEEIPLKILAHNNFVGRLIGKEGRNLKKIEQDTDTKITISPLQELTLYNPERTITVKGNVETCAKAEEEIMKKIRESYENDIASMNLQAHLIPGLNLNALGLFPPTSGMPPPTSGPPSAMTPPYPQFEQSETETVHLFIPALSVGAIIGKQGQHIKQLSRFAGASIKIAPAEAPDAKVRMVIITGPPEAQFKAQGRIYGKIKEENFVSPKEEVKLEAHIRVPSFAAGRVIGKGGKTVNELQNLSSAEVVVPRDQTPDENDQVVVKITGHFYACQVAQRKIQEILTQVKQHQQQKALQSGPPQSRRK

The test system of this experiment is IMP3 KH1-4. The experiment can be described thus: 6-mer SELEX enrichment z-score vs GST control; IMP3 is the RNA-binding protein IGF2BP3; higher = more enriched by binding. Particulars: construct: KH1-4 (164-579); SELEX round: R4. How it is done:
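SELEX-seq with GST-tagged IMP3 KH1-4 (Pro164-Lys579) and an N40 RNA pool, round 4. 6-mer z-score of sequence-tag enrichment normalised to the corresponding GST SELEX round; RNA k-mers written as DNA (T for U).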
As for CCCGAA, the “6-mer SELEX enrichment z-score” value is -2.55.

As for ACCGTG, the “6-mer SELEX enrichment z-score” value was -0.553. Next, AGCATG: 0.007. For CGCGTG, the “6-mer SELEX enrichment z-score” value was -1.61.

As for GGAACG, the “6-mer SELEX enrichment z-score” value was -0.044. Next, GTCGTT: -0.048. Next, CTTTCC: 0.742; ATACTG: 0.824. As for ATCTGG, the “6-mer SELEX enrichment z-score” value was -0.146.

For AAACCC, the “6-mer SELEX enrichment z-score” value was -3.24. Next, GTCACG: -0.562; ACGGTG: -0.013; TACGGC: 1.78. Next, GAAATT: 0.435; CTCCGA: -1.21; TGAAGT: 0.234. Next, CGATTC: -0.084; TGTCGA: -0.805; ATCCAG: -0.34. For GAGGAA, the “6-mer SELEX enrichment z-score” value was found to be 0.829. Next, GAGATG: 0.221. Next, TTACAC: 1.19; CTGGTT: -0.171; ACTTCT: 0.515. Next, TGTCCG: -0.059. In the case of AGGGAT, the “6-mer SELEX enrichment z-score” value was determined as 0.678. Turning to AGCCCC, the “6-mer SELEX enrichment z-score” value is -0.113. Next, ACTCAG: -0.954; CCGCGC: -0.946. TCCCGT: the “6-mer SELEX enrichment z-score” value is -0.461. Next, TTTATT: 1.39; CTCGGC: 0.129. Next, AGGACC: -0.533; GCTTAT: 0.392. Next, CCGCGG: -0.19. For AGACCT, the “6-mer SELEX enrichment z-score” value was -0.968. Next, CGATAT: 0.57; AACATA: 2.6; GTTACA: 0.378. Next, GAGTTT: -0.261.
